In assay [1] the target is T1, endogenous ΔNp73α (HNC-136) (human (endogenous in HNC-136)) (UniProt O15350).
T1 sequence: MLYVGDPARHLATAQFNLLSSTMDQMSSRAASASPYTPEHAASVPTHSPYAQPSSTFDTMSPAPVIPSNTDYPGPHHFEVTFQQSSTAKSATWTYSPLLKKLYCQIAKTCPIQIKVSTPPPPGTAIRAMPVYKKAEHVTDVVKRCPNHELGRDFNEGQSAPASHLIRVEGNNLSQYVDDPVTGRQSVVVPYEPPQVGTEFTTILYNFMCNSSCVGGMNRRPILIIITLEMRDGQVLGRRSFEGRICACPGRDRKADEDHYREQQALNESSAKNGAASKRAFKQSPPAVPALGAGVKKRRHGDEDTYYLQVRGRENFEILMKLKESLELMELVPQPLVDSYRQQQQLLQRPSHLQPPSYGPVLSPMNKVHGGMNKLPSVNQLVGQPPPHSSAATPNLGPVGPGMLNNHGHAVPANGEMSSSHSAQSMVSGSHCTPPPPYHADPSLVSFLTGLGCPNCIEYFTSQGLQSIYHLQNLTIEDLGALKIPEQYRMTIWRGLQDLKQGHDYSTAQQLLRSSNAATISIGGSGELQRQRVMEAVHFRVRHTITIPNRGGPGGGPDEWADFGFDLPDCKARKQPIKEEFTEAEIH
The assay can be described thus: co-IP; nuclear extracts of HNC-136 cells, sucrose gradient, fractions precipitated with anti-p73 antibody-coupled beads, Western blot of endogenous proteins. Background: Immunoblotting shows a protein as a band on a membrane.

Chains of the proteins cited; added tags and fusions are not shown. Lines headed by an entry give the natural chain unless they say otherwise; changes in a name come on top.
UniProt P03129: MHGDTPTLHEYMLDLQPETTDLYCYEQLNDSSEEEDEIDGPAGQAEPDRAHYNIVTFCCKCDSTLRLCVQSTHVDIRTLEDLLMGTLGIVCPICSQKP
UniProt Q16254: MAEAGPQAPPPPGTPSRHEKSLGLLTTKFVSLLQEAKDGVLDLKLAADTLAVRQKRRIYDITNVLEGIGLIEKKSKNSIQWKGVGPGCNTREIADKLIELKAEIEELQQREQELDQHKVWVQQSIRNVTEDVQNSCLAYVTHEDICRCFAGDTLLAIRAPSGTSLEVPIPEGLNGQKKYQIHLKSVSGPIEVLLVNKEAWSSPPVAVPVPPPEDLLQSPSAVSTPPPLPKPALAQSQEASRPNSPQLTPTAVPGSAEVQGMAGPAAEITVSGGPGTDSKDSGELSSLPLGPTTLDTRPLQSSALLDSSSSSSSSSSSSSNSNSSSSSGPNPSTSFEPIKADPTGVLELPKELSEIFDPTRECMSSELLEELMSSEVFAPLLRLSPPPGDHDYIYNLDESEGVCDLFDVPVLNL
UniProt Q08999: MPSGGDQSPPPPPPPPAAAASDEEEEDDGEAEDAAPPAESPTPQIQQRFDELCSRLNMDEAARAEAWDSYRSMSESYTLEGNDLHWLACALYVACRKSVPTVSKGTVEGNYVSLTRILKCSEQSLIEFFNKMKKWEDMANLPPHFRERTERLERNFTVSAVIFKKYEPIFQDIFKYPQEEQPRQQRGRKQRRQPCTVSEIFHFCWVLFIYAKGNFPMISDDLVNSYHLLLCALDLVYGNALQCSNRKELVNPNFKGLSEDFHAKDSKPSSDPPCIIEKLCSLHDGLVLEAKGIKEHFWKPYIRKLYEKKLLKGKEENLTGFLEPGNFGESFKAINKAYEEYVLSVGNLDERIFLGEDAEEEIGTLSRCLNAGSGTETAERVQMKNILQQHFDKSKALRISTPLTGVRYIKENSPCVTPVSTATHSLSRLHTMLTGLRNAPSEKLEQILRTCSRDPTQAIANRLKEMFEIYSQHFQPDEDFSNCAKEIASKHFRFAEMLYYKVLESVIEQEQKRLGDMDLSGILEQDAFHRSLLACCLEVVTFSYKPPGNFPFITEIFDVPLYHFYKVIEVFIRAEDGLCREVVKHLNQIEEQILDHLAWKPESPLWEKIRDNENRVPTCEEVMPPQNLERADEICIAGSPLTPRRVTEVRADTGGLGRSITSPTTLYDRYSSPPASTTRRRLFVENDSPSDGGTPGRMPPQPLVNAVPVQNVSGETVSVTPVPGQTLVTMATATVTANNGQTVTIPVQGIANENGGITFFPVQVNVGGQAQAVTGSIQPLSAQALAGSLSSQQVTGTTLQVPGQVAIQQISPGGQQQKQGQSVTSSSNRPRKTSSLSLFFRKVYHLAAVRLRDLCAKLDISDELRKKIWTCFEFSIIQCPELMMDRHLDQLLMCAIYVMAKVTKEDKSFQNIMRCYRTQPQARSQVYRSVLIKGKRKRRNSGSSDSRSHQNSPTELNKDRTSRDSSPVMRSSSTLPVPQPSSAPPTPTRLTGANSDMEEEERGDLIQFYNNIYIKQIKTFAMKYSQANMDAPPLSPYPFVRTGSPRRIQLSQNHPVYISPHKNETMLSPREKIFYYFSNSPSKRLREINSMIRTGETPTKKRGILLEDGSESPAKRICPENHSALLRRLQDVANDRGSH
UniProt Q14186: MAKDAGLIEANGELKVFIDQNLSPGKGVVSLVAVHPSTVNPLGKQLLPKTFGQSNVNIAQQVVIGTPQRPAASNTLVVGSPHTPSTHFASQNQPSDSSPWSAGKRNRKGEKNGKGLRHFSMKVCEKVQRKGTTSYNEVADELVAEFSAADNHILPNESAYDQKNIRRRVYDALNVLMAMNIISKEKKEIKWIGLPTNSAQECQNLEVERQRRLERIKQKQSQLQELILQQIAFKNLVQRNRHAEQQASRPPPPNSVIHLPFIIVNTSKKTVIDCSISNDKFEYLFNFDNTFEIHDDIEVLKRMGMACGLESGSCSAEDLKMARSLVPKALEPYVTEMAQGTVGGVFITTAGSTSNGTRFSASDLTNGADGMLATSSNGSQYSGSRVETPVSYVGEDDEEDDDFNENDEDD

Another assay addresses Gluc1-ΔNp73α FL (human) (UniProt O15350). The assay can be described thus: split reporter; Gaussia princeps protein complementation assay (GPCA): Gluc1 and Gluc2 N-terminal fusions co-transfected in HEK293T, luminescence of lysates after 48 h as normalized luminescence ratio (NLR); pairs count as interacting if NLR is above 5.
Assay [2] has as its target Gluc1-16.E7 (human papillomavirus type 16) (UniProt P03129). The assay is described as above.
For another assay, the target named is T2, Gluc1-TAp63α (human) (UniProt Q9H3D4).
T2 sequence: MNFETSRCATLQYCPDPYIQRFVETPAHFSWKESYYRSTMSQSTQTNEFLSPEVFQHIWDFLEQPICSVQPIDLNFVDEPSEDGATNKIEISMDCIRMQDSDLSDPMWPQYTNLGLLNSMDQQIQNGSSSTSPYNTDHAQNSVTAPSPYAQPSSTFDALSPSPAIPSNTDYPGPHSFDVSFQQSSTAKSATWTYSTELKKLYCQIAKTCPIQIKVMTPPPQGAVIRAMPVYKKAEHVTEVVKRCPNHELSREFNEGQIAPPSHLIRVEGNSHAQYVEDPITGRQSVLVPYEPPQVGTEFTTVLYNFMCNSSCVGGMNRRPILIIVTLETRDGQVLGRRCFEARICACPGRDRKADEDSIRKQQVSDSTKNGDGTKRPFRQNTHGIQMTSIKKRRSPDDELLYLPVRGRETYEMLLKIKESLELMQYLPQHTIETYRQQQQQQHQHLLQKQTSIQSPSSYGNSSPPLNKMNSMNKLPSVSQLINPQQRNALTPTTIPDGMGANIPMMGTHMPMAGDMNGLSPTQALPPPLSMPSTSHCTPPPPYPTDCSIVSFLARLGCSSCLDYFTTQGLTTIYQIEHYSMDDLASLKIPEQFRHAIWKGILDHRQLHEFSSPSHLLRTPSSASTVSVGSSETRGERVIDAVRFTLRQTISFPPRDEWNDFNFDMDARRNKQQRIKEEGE
Described as above.

The target of another assay is T3, MBP-TAp73α FL (human) (UniProt O15350).
T3 sequence: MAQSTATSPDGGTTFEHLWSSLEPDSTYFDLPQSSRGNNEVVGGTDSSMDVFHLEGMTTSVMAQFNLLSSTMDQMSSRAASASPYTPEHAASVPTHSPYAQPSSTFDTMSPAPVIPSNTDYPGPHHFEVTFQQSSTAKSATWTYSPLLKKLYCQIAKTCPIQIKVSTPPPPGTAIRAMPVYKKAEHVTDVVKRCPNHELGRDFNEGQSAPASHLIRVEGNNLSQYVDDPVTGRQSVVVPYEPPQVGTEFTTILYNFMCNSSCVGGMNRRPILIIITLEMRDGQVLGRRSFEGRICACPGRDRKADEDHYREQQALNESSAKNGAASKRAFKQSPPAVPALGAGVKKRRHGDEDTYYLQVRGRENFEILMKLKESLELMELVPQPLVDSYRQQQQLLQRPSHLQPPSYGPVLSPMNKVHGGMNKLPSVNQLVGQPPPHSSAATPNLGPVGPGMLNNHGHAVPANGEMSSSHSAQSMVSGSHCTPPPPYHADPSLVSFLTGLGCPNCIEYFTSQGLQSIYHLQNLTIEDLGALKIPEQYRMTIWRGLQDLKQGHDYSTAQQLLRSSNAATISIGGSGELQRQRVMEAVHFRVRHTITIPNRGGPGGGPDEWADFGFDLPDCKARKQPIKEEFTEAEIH
Put plainly: pull-down; MBP fusions on amylose resin incubated with clarified lysates of HEK293T expressing 3xFlag-E2F4, 2 h at 4°C, PD buffer (20 mM Tris pH 8.0, 150 mM NaCl, 2 mM DTT), elution with 20 mM maltose, anti-Flag Western blot; only the target purified.

The target of another assay is T4, MBP-ΔNp73α FL (human) (UniProt O15350).
T4 sequence: T1 sequence
Described as above.

For assay [3], the target named is T5, HA-ΔNp73α (human) (UniProt O15350).
T5 sequence: T1 sequence
The assay can be described thus: co-IP; nuclear extracts of 38HK stably expressing HA-ΔNp73α, fractionated by size exclusion chromatography (Superose 6 10/300 increase), fractions precipitated with anti-HA agarose beads. For orientation: Size exclusion chromatography separates by hydrodynamic size, large species first.

Assay [4] concerns the target T5, HA-ΔNp73α (human). The assay can be described thus: co-IP; nuclear extracts of 38HK stably expressing HA-ΔNp73α, 50 to 10% sucrose gradient, fractions precipitated with anti-HA agarose beads, Western blot; also after scramble, E2F4 or E2F4 plus E2F5 siRNAs.
Assay [5] addresses T6, Gluc1-ΔN(1 to 348) (human) (UniProt O15350).
T6 sequence: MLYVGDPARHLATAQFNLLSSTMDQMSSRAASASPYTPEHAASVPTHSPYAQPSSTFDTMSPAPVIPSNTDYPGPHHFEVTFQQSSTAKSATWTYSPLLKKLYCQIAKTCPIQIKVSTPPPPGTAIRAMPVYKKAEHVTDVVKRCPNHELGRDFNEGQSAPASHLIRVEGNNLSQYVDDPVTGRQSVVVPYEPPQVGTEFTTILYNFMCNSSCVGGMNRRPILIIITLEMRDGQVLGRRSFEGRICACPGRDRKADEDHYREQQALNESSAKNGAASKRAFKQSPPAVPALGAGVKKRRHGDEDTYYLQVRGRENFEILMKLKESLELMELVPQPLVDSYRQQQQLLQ
Put plainly: split reporter; Gaussia princeps protein complementation assay (GPCA): Gluc1 and Gluc2 N-terminal fusions co-transfected in HEK293T, luminescence of lysates after 48 h as normalized luminescence ratio (NLR); pairs count as interacting if NLR is above 5.

The target of assay [6] is T7, Gluc1-ΔN(14 to 348) (human) (UniProt O15350).
T7 sequence: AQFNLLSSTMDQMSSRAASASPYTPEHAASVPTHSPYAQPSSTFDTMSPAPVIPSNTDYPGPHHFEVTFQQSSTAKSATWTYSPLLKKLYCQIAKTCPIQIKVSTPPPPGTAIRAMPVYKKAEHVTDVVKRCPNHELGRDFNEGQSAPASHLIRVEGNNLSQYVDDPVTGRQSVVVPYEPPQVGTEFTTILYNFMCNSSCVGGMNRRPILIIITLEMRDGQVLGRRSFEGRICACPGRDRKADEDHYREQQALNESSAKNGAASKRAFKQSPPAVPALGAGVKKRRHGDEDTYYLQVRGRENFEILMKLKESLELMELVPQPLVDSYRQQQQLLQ
The description is as above.

Assay [7] has as its target T8, Gluc1-ΔN(262 to 348) (human) (UniProt O15350).
T8 sequence: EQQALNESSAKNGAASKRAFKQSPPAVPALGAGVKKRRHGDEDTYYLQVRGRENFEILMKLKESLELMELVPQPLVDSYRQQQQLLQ
The description is as above.

No constants are given. Whether binding was seen depends on the method and setting. In cells and extracts the contact can be indirect. Some results given as binding are weak or reduced against the parent protein; the word gives no strength. For some of these results: Sequences can lack the tags named with a protein.

In the case of “endogenous E2F4 (HNC-136) (from UniProt Q16254 1-413)”, the binding entry in assay [1] is “binds”.
For the substance “Gluc2-E2F(89 to 196) (from UniProt Q16254 89-196) (domain or fragment)”, the binding entry with Gluc1-ΔNp73α FL (human) is reported as “binds”.
Turning to Gluc2-p130 (from UniProt Q08999 1-1139), the binding result in assay [2] is recorded as “binds”; with Gluc1-TAp63α (human), “no binding”; with Gluc1-ΔNp73α FL (human) it was “no binding”.
Consider “3xFlag-E2F4 FL (from UniProt Q16254 1-413)”, for which the binding entry in the assay with MBP-TAp73α FL (human) and with MBP-ΔNp73α FL (human) was “binds” each time.
For the substance “Gluc2-E2F(1 to 196) (from UniProt Q16254 1-196) (domain or fragment)”, the binding result with Gluc1-ΔNp73α FL (human) was “binds”.
Take “endogenous E2F4 (38HK) (from UniProt Q16254 1-413)”: the binding result in the assay with HA-ΔNp73α (human) [3] and in the assay with HA-ΔNp73α (human) [4] was “binds” throughout.
In the case of Gluc2-DP1 (from UniProt Q14186 1-410), the binding result in the assay with Gluc1-TAp63α (human) and in the assay with Gluc1-ΔNp73α FL (human) was “no binding” each time.
Take “Gluc2-E2F4 FL (from UniProt Q16254 1-413)”: the binding result in the assay with Gluc1-TAp63α (human) is reported as “no binding”; in assay [5], “binds”; in assay [6], “binds”; in assay [7], “binds”.
